Here are results for 42 compounds from ChEMBL document CHEMBL4888484, “Replenishing the malaria drug discovery pipeline: Screening and hit evaluation of the MMV Hit Generation Library 1 (HGL1) against asexual blood stage Plasmodium falciparum ,using a nano luciferase reporter read-out” (2022).

In general, % Inhibition refers to the drop in the measured response relative to a control, in per cent.

Each structure is given as a SMILES string. Hit rate of the full screen: of about 150,000 compounds, about 540 (0.36%) showed an effect of 50% or more. The list shows a part of the results.

The test concerns Plasmodium falciparum. Description: Primary screen in NF54 nanoGlo assay, in single point, at 2uM, 72h; a lower Z score goes with more inhibition. The test is classed as functional, Erythrocyte. The conditions noted are these: timepoint 72 hour.
Regarding `Cc1cc(O[C@H]2CCN(C(=O)CC(C)(C)C)C2)nc(C)n1`, the “% Inhibition” value is reported as -4% and the Z score was determined as 0.57.

On to `CN(CCc1ccccn1)c1nc(C(F)(F)F)cs1`, for which the “% Inhibition” value is given as -4% and the Z score was 0.46.

Consider `CCOc1nnc(CN(C)[C@@H](C)c2ccc(F)cc2)s1`, for which the “% Inhibition” value is recorded as -11% and the Z score is 1.55.

In the case of `CCCc1nc(N[C@@H](C)c2nncn2C(C)C)c2cnn(C)c2n1`, the “% Inhibition” value worked out at 5% and the Z score is -0.74.

Take `Fc1ccc(COC2CCN(Cc3csnn3)CC2)cc1`: the “% Inhibition” value is -4% and the Z score was 0.6.

Take `CS(=O)(=O)Nc1ccc(F)c(NC(=O)NC2CCOCC2)c1`: the “% Inhibition” value is recorded as -3% and the Z score was 0.54.

In the case of `CN(C[C@H]1CCS(=O)(=O)C1)C1CCCCCCC1`, the “% Inhibition” value stood at 0% and the Z score was -0.03.

On to `CC(C)[C@@](C)(C#N)NC(=O)CN(C)CC1CCCCC1`, for which the “% Inhibition” value was -12% and the Z score was determined as 1.45.

As to `COc1ccc(OC)c(Nc2ncc3c(n2)CCNC3)c1`, the “% Inhibition” value is -4% and the Z score is on record as 0.61.

`Cc1nc(N2C[C@@H](F)C[C@H]2CO)sc1S(N)(=O)=O`: the “% Inhibition” value is on record as -40% and the Z score turned out to be 4.71.

In the case of `Cc1nccn1[C@@H](C)Cc1nc(C2CCCC2)nn1CC(F)(F)F`, the “% Inhibition” value is recorded as 6% and the Z score is -0.66.

As for `Cc1cc(=O)[nH]c2cc(C(=O)NC3CCN(CC(F)(F)F)CC3)ccc12`, the “% Inhibition” value is recorded as -3% and the Z score is on record as 0.57.

For the compound `O=C(NC1CCCCCC1)c1ccc(-c2c(-c3ccc(F)cc3)ncn2C2CCCCC2)o1`, the “% Inhibition” value is on record as -2% and the Z score is 0.25.

With `CCN1CCN(C(=O)NCc2noc3c2CCCC3)CC1=O`, the “% Inhibition” value was -24% and the Z score was determined as 2.16.

Regarding `CC(C)(C)OC(=O)N1CCN(c2nnc(NCc3ncc[nH]3)[nH]2)CC1`, the “% Inhibition” value is recorded as -11% and the Z score worked out at 1.82.

Turning to `CC(C)Cc1nnc(C(=O)Nc2ccc(C(=O)NCCN(C)C3CCCCC3)cc2)s1`, the “% Inhibition” value is on record as -7% and the Z score was determined as 0.85.

`COCC1(CNC(=O)NCc2cccnn2)CCC1`: the “% Inhibition” value is reported as 4% and the Z score was -0.64.

In the case of `Cc1ccn2c(NC(=O)CCOc3ccccc3)nnc2n1`, the “% Inhibition” value is recorded as -5% and the Z score was 0.68.

As to `c1ccc(-c2ccc(Nc3cc(-c4ccccc4)nc(-c4ccccc4)n3)cc2)cc1`, the “% Inhibition” value is -14% and the Z score is listed as 1.62.

Take `COc1ccc(C(=O)Nc2ccn(Cc3ccccc3F)n2)cc1COc1ccccc1Br`: the “% Inhibition” value was found to be 3% and the Z score is given as -0.37.

Take `Cc1ccc(C(=O)N2[C@H](C(=O)NCc3ccncc3)COC23CCN(C(=O)CC(C)(C)C)CC3)cc1`: the “% Inhibition” value amounted to 7% and the Z score is -0.85.

Consider `CCOc1ccc([C@H]2C[C@@H](c3ccc(CC)cc3)Nc3nnnn32)cc1OC`, for which the “% Inhibition” value was -16% and the Z score was found to be 2.46.

As to `CCN(Cc1nc2cc(Cl)ccc2c(=O)[nH]1)C(=O)c1ccc2nc(C)c(C)nc2c1`, the “% Inhibition” value is listed as -2% and the Z score is given as 0.38.

For the compound `CC(CC1CCOC1)NCc1ccccc1` (centres undefined), the “% Inhibition” value is reported as -9% and the Z score worked out at 1.3.

As to `Cc1noc(C)c1CNc1ccc(C(=O)N2CCC(C)CC2)cn1`, the “% Inhibition” value is recorded as -20% and the Z score amounted to 3.93.

For the compound `C[C@]1(c2ccc(Cl)c(Cl)c2)NC(=O)N(Cc2nc3ccccc3s2)C1=O`, the “% Inhibition” value stood at 1% and the Z score is -0.09.

As to `CCc1nnc(CN(C(=O)c2cc(C)c(C)[nH]c2=O)C(C)C)o1`, the “% Inhibition” value is given as -17% and the Z score turned out to be 3.4.

On to `O=C(NC[C@H]1CCCNC1)c1ccc2nc(-c3ccc(F)cc3)cn2c1`, for which the “% Inhibition” value amounted to 11% and the Z score is -1.55.

Regarding `COc1ccc(S(=O)(=O)Nc2c(C)ccc(O)c2C)cc1[C@@]1(C)NC(=O)NC1=O`, the “% Inhibition” value came out at 6% and the Z score is recorded as -0.69.

Take `COC[C@H](C)NC(=O)c1cc(-c2ccc(C3CCCCC3)cc2)on1`: the “% Inhibition” value is recorded as -5% and the Z score is listed as 0.95.

Regarding `Cc1cccn2c(=O)c(C(=O)Nc3ncc(C4CCNCC4)s3)cnc12`, the “% Inhibition” value is recorded as -17% and the Z score is on record as 2.16.

As to `Cc1cc(N(C)C)cc(C)c1NC(=O)N(C)[C@@H](C)C1CC1`, the “% Inhibition” value is given as -16% and the Z score is recorded as 3.01.

`O=C1C[C@@H](c2ccccc2)N(C(=O)CC2CCCC2)CCN1`: the “% Inhibition” value is 2% and the Z score is reported as -0.31.

As for `O=C(Cn1ccc2c(=O)[nH]ccc21)Nc1cccc(Br)c1`, the “% Inhibition” value was -16% and the Z score is on record as 1.55.

For `CC#CC(=O)N(Cc1cc(Br)ccc1OCC)C1CC1`, the “% Inhibition” value stood at 1% and the Z score is recorded as -0.22.

For `CC(C)(C)c1cn(C2CCN(C(=O)[C@]3(C)CCCO3)CC2)nn1`, the “% Inhibition” value is given as -2% and the Z score is given as 0.37.

Regarding `CO[C@H]1CCC12CCN(S(=O)(=O)c1c(C)noc1C)CC2`, the “% Inhibition” value is -1% and the Z score is 0.09.

Regarding `Cc1ccsc1CN1CCn2nc(CCC(=O)O)cc2C1`, the “% Inhibition” value is on record as -12% and the Z score is reported as 1.83.

Regarding `Cc1ccc(NCn2nc(-c3ccccc3)oc2=S)c(C)c1`, the “% Inhibition” value is -3% and the Z score is given as 0.42.

Consider `COc1cccc2c1Oc1c(c(=O)n(-c3ccc(C)cc3C)n1CC(=O)Nc1ccc(C)cc1C)C2`, for which the “% Inhibition” value is given as 9% and the Z score was -0.9.

For the compound `COc1ccc(CC(=O)N2CC[C@@H](CC(=O)O)[C@@H](CCN3CCCCC3)C2)cc1`, the “% Inhibition” value is given as 11% and the Z score is on record as -1.32.

In the case of `Cc1cc(C2CCC(C(=O)O)CN2C(=O)C2CCCC2)ccc1F` (centres undefined), the “% Inhibition” value was determined as 3% and the Z score is given as -0.46.
